# Measured values taken from PMC5836133.
# This is one part of the list. At the low end of the ranking the order means little.
# Test system: T1, GST-NbGlk1(82-244)
# T1 sequence: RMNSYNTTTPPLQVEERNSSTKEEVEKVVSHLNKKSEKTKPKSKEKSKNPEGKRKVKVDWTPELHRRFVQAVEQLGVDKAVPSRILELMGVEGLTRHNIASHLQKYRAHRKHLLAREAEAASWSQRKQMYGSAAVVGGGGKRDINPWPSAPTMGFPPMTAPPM
# Assay: protein-binding microarray;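 further: rank-based score ranging −0.5 to +0.5 with E above 0.45 taken as significant binding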
# Conditions: NbGlk1 is a Golden2-like transcription factor of Nicotiana benthamiana; high values mean tight binding; most listed sequences are background and not binding sites; double strand, one strand shown
row,Sequence,binding signal [E-score]
1,AATACCGT,-0.0547
2,AATTGCAT,0.183
3,AAGATATT,0.393
4,ACAAGTTA,0.0146
5,AAACCTTC,-0.166
6,AGGAGAAC,-0.109
7,AAACTTTA,0.0379
8,AAAAGGGA,-0.0791
9,AAGGGCAA,-0.112
10,ATGTCCTA,-0.0548
11,AATTGGAT,0.2
12,ACGCAGTG,-0.175
13,ATCGCGAC,0.287
14,ACACGTAT,0.13
15,ATCACTGA,0.161
16,AAGTTAGA,0.00555
17,AACGAGCG,-0.114
18,AACGCACC,-0.243
19,ATCCGTTA,0.315
20,AAGAGGAC,-0.251
21,AAGGTCGT,-0.116
22,CACCAGCA,-0.0601
23,ATATACCC,0.0513
24,ACCTAGGC,-0.123
25,AGTGGAAG,-0.0915

row,Sequence,binding signal [E-score]
1,AGAGATAA,0.0746
2,AGACTACG,-0.0629
3,AAGTGTTG,-0.00112
4,AATTGATC,0.0759
5,ATCCCGTA,0.31
6,ACAGAGGA,-0.0407
7,AGAAAACC,-0.0632
8,ACCAGGGA,-0.142
9,AACTCCGC,-0.098
10,ACCTCGAG,-0.0958
11,AGTAGACT,-0.046
12,ACTGAAAT,0.278
13,AACTCCCA,-0.242
14,ATCATGTA,0.154
15,ATATGCAC,0.266
16,AGAACGAT,-0.0187
17,AAACTGAC,-0.0843
18,ATTCCAAA,0.17
19,CAAATCGC,0.32
20,ATCAAACG,0.142
21,ACTAGCAA,-0.0452
22,AATCGCGG,0.317
23,AACAAATT,0.129
24,ACCGGGCA,-0.211
25,AAATGATT,0.197

row,Sequence,binding signal [E-score]
1,ACCGCTAG,-0.121
2,ACATTAAA,0.0476
3,ATCGCCAG,0.142
4,ATAACAAC,0.147
5,ACGATATG,0.193
6,AGTGATTC,0.282
7,ATAGCTCA,-0.0823
8,ACTATCCC,-0.0744
9,AAGCGTGC,-0.229
10,ATCGCGGC,0.208
11,AAGGATCC,0.222
12,AACGAAGT,-0.157
13,ATATGATC,0.171
14,ACCATTCC,-0.0305
15,ACGCGTCC,-0.0191
16,CACCGATA,0.256
17,ACCGGCAA,-0.0883
18,AGGTATCA,0.0924
19,AGCAAAGA,-0.00752
20,ACCGATTA,0.164
21,ACGAACAT,-0.0713
22,ACTCGTTG,-0.114
23,ATTCTTGC,0.109
24,AATCTCGA,0.436
25,ATTACGGC,0.278

row,Sequence,binding signal [E-score]
1,AGAATGCT,-0.256
2,ACAAGCTG,-0.265
3,ATTCACTA,0.0894
4,AAATGATA,0.15
5,ATCATGCC,0.047
6,AAACCGAA,0.125
7,ATTCGTTG,0.118
8,ACATATGA,0.0727
9,ACTCTTGA,-0.156
10,ATTGCCTG,0.182
11,ACCGAGCG,-0.121
12,AGAGGTAC,-0.119
13,ACCATCGC,-0.125
14,AGGTACCG,-0.112
15,ATAGCGCG,0.117
16,ACATGCTA,0.0278
17,ACGAGGAA,-0.00457
18,CACAATAC,0.146
19,CACTAGCA,-0.182
20,AACACTCT,-0.159
21,AGACCGTA,0.0163
22,ATGATTGC,0.33
23,ATTCACCC,0.0183
24,ATCTTCTA,0.289
25,ACCGGCGA,-0.038

row,Sequence,binding signal [E-score]
1,AGCACCAA,-0.151
2,ACCCTGAC,-0.131
3,ATGGTAGG,-0.0897
4,AGGCCGGC,-0.25
5,ATTACCTA,0.225
6,AGGAATGC,-0.127
7,ACTATGCG,0.0378
8,AACTATCT,0.0149
9,CACAATGA,-0.0475
10,AGCATTTG,-0.0443
11,AAAGCGCC,-0.212
12,CACGACCA,-0.189
13,AGAGCGGA,-0.0645
14,ATGTTGCC,-0.0505
15,AATGGTCC,-0.0798
16,AGAGATGG,-0.127
17,AAGGGCGT,-0.251
18,AACTGCTA,-0.0585
19,AGGGTACT,-0.0881
20,AAAGCTCT,-0.22
21,AAGTTGGG,-0.11
22,ATAAGACA,0.122
23,AGCGCGAA,0.0125
24,AATCCACG,0.406
25,CAACGAGC,-0.197

row,Sequence,binding signal [E-score]
1,ATATTAAC,0.132
2,AACACTGT,0.0152
3,ACTACGGA,0.0643
4,ACCGCTGG,-0.183
5,ACTGGTAA,0.172
6,ATACCAAG,-0.0789
7,ACGTCTGG,-0.0875
8,ACGCCCCC,-0.31
9,AAAGGCGT,-0.13
10,ATCGACGC,0.127
11,ACTACTAT,0.156
12,ACTGACCC,-0.251
13,AATACGGC,0.0978
14,AGGCAGGC,-0.249
15,AGTTTGGA,0.14
16,ATTCACGA,0.0268
17,AGGTGATG,-0.198
18,ACACAATG,-0.0803
19,ATCCTTTC,0.151
20,ATTGCTAG,0.16
21,ACTACGAG,-0.0309
22,CAACAGCA,-0.117
23,ACAAAATC,0.458
24,CAGACATC,0.012
25,ATTTCGGG,0.27

row,Sequence,binding signal [E-score]
1,CACTACTC,-0.0916
2,AGACAGAA,-0.0937
3,ATCCTAAC,0.254
4,ATTCGGCA,0.197
5,ACGGTTGA,-0.115
6,AACGTACT,-0.0379
7,AAGTTCTG,-0.0105
8,ACTGTTCC,-0.083
9,CAAGCTTC,-0.0967
10,CAATAAGA,-0.00121
11,ACGGGTGA,-0.137
12,AGCTCACG,-0.156
13,AACTCCTC,0.00783
14,ATCCATCC,0.17
15,CACCTGTA,0.0667
16,ACCTCACA,-0.0681
17,AAATATTA,0.313
18,ACTAACTA,0.134
19,AGTATTTC,0.148
20,AACTTTCC,0.0335
21,ATGGCCTC,-0.313
22,ACGTCGAA,0.0282
23,AGTGACAC,-0.122
24,AAATTTGA,0.132
25,AACATTAC,0.0383

row,Sequence,binding signal [E-score]
1,ACCCAGTC,-0.166
2,ACCGGCTA,-0.278
3,AGTGAAAC,-0.162
4,ATGCGATC,0.363
5,AGTTCTTG,-0.0759
6,ATCTAGGG,0.208
7,AGAGAACT,-0.0176
8,ACAAGAGA,0.277
9,ATGGGAGG,-0.179
10,AAGCATCT,-0.0646
11,AAGCCAAC,-0.189
12,ATCTTTGA,0.318
13,CAAGAGAG,-0.124
14,AACTGACA,-0.106
15,AGGAACTG,-0.105
16,AGGTTAAA,-0.0304
17,AGTCGGTG,-0.134
18,ACATCGCC,-0.147
19,CACCATAG,-0.0495
20,AACAGCGC,-0.0469
21,AGGCGCCC,-0.288
22,CAAAGGCC,-0.318
23,AATTATTC,0.069
24,ACACCTGG,-0.206
25,CAAGCATA,0.0364

row,Sequence,binding signal [E-score]
1,CAGCCGGA,-0.109
2,AACATCAC,0.00231
3,AGTTGCCC,-0.165
4,ATGGTAAA,0.106
5,ACATTTTA,0.133
6,AATTAAGT,0.127
7,AGTCTCTA,-0.139
8,AAGAGAAG,-0.0779
9,ACAAGCCT,-0.0884
10,AGGCAGCC,-0.134
11,ACCAACGG,-0.181
12,ACCAATTC,-0.00393
13,ATAATAAT,0.197
14,AAAGTGCC,-0.132
15,ACGACCGC,-0.267
16,AATGACGT,0.0552
17,AGGCGAGG,-0.229
18,CACCTACA,-0.0824
19,ATAAAAAT,0.292
20,ATTATCGA,0.108
21,ACGAGTGG,-0.0745
22,ATGGAACC,-0.162
23,ATTGACGG,-0.0847
24,AAGCAAGT,0.0212
25,AATAATGG,0.166

row,Sequence,binding signal [E-score]
1,AACTCTCA,-0.0697
2,AGACGCCC,-0.354
3,AGGGCGAT,0.134
4,AATTCTAT,0.22
5,AACGCACG,-0.192
6,AAGAATTG,-0.042
7,AATTTTCT,0.243
8,ATTATCTG,0.286
9,ACATGTGA,0.201
10,AACACTGA,0.00175
11,AGACTAAC,-0.189
12,ACGTGGCA,-0.183
13,AGCGCGCA,0.0458
14,ACTTTCGG,-0.0965
15,AAGAGGAA,-0.0777
16,AGACCCTA,-0.205
17,ACAGCAGG,-0.184
18,ATCTGACC,0.234
19,ACGCAATA,0.282
20,AGTAAACG,0.0905
21,ACGATATC,0.444
22,CAAGTCTA,-0.182
23,AAGGCACA,-0.228
24,ACTCCTGA,-0.0405
25,AAGGACTT,-0.112

row,Sequence,binding signal [E-score]
1,ATTCCTTA,0.228
2,ACGTGAGT,-0.0776
3,AGTGCCGA,-0.0181
4,ATCGCGAA,0.323
5,AAACTCGG,-0.0199
6,ACCCCGAC,-0.205
7,AAAACCGT,0.0125
8,AATCTCGC,0.411
9,ATCTCTGA,0.269
10,ATGTTTGC,-0.19
11,AGGATGAG,0.0489
12,CAATCATG,0.174
13,AGATAAAG,-0.174
14,ACCCCGGA,-0.0849
15,ATTGGTAC,0.134
16,AACAGTCA,-0.0215
17,AGCATTAC,-0.0277
18,ACTGGGCG,-0.258
19,ATAACAAT,0.136
20,AGACACCA,-0.0759
21,AAGTCAAA,-0.0854
22,AGTAACCG,-0.146
23,ACTCCAGA,-0.121
24,ATTTCAGG,0.159
25,ATTAGGGG,-0.0741

row,Sequence,binding signal [E-score]
1,AGATACCT,0.216
2,ATTGAAAC,-0.0966
3,ATCAACGA,0.211
4,ATGGGGTC,-0.291
5,ACGCCCAA,-0.0866
6,ATGGAGAA,-0.0331
7,AGAAGTCG,-0.124
8,AAACTCTA,-0.1
9,AAGAAACC,-0.0252
10,ACACGGTC,-0.291
11,AGTATGTG,0.0648
12,AGGCTCGG,-0.159
13,ATGCCTAC,0.0371
14,AAAGGCTT,-0.133
15,ATGAGTGC,-0.0499
16,AATGGGTC,-0.214
17,ATTTGGAC,0.119
18,ATGCTTTC,-0.0199
19,AAACACTA,0.184
20,ACCTATAG,0.000693
21,ACAGCTGA,-0.00258
22,AAGCTCTA,-0.197
23,ATTAGGTA,0.136
24,ACGTCAAG,0.0656
25,AGCTTTAC,-0.0365

row,Sequence,binding signal [E-score]
1,ACATTCAC,-0.0115
2,CAAATTCC,0.158
3,AACGGAAA,0.101
4,ACTCTAAG,-0.237
5,AGAGCGTG,-0.187
6,CAGCGGCC,-0.339
7,AAACATTG,-0.0364
8,AATCACAA,0.346
9,ACTTCCGA,0.021
10,AGAGACAC,-0.134
11,CAAGGACC,-0.274
12,AATCTGAT,0.414
13,ACGCACAT,0.122
14,ACTTTTCA,-0.0467
15,ACTCTACA,0.0504
16,ATCCTCAC,0.142
17,CAAGCTCC,-0.236
18,ACTAACCA,-0.122
19,ACATCTGA,0.0862
20,ATCGCTGC,0.148
21,AAGCTATC,-0.00396
22,AGACAGCG,-0.15
23,AATAGAAT,0.256
24,ACCCAACT,-0.211
25,AATTGGCC,-0.175

row,Sequence,binding signal [E-score]
1,AGATACCG,0.364
2,AGCATTTC,-0.0542
3,CAGAAGGA,-0.129
4,ATTTCAAG,0.23
5,ATAATGGA,0.184
6,CAGATGCG,0.013
7,ATAGTTTG,0.0629
8,AATGTGCT,-0.106
9,AGTTCCAA,-0.0756
10,ACTTGGGC,-0.27
11,AAGGCTTG,-0.171
12,ATCCAAAC,0.241
13,ATTTATCC,0.0354
14,CACAGTTC,-0.0236
15,CAGATTAC,0.477
16,ACGGAGAT,0.324
17,AGAGAAGG,-0.228
18,ACTGTATG,-0.0811
19,ACGGGCTG,-0.264
